# Laboratory results reported in the supplement of paper PMC7125110.
# ± gives the standard error. Variants at the background level are over-represented here.
# B1: glmS ribozyme (parent)
# chain: AUAAAAGCGCCAGAACUACAGAAAUGUAGUUGACGAGGAGGAGGUUUAUCGAAUUUUCGGCGGAUGCCUCCAAA
# How the values were obtained:
# Conditions in all cases: with glucosamine-6-phosphate
# glucosamine-6-phosphate [1] = variants of: B1; experiment: self-cleavage kobs at 40 uM GlcN6P; higher = faster cleavage; RNA array
# In short: (§1)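 Using a hybridised Cy3 probe at 37 °C, barcoded ribozyme variants transcribed in situ by E. coli RNA polymerase on sequenced MiSeq chips were monitored across tiles imaged over ~14 h. The flow contained glucosamine-6-phosphate from 40 μM to 10 mM in HEPES/KCl/Mg(OAc)2 buffer. Signals were normalised to baseline and to non-cleaving reference variants before per-tile medians were fit to one- or two-exponential decays to yield kobs. Weighted Michaelis–Menten fits across concentrations gave kcat and KM.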
# glucosamine-6-phosphate [2] = variants of: B1; experiment: self-cleavage kobs at 640 uM GlcN6P; higher = faster cleavage; RNA array
# In short: as §1
# glucosamine-6-phosphate [3] = variants of: B1; experiment: self-cleavage kobs at 160 uM GlcN6P; higher = faster cleavage; RNA array
# In short: as §1
# glucosamine-6-phosphate [4] = variants of: B1; experiment: self-cleavage kobs at 10000 uM GlcN6P; higher = faster cleavage; RNA array
# In short: as §1
# glucosamine-6-phosphate [5] = variants of: B1; experiment: self-cleavage kobs at 2500 uM GlcN6P; higher = faster cleavage; RNA array
# In short: as §1
Variant,self-cleavage kobs at 40 uM GlcN6P (glucosamine-6-phosphate [1]),self-cleavage kobs at 640 uM GlcN6P (glucosamine-6-phosphate [2]),self-cleavage kobs at 160 uM GlcN6P (glucosamine-6-phosphate [3]),self-cleavage kobs at 10000 uM GlcN6P (glucosamine-6-phosphate [4]),self-cleavage kobs at 2500 uM GlcN6P (glucosamine-6-phosphate [5])
G29A C34G,< 1e-05 s⁻¹,< 1e-05 s⁻¹,< 1e-05 s⁻¹,< 1e-05 s⁻¹,
G29U C67A,5.58e-05 ± 7.8e-06 s⁻¹,0.000276 ± 3.9e-05 s⁻¹,9.85e-05 ± 1.4e-05 s⁻¹,,
U30C C34U U65C,< 1e-05 s⁻¹,,,< 1e-05 s⁻¹,
A14U G37U,< 1e-05 s⁻¹,< 1e-05 s⁻¹,,< 1e-05 s⁻¹,
U31G G62C,< 1e-05 s⁻¹,< 1e-05 s⁻¹,< 1e-05 s⁻¹,< 1e-05 s⁻¹,
A14G U31C G41C G63A,< 1e-05 s⁻¹,,,< 1e-05 s⁻¹,
C16G G40U U65C,< 1e-05 s⁻¹,< 1e-05 s⁻¹,,,
U31G A64C,< 1e-05 s⁻¹,,< 1e-05 s⁻¹,,
A15C C50G G62U,4.56e-05 ± 2.2e-05 s⁻¹,6.39e-05 ± 2.8e-05 s⁻¹,,,0.000111 ± 3.3e-05 s⁻¹
A15U G62A,< 1e-05 s⁻¹,,< 1e-05 s⁻¹,< 1e-05 s⁻¹,< 1e-05 s⁻¹
G29U A33C C70U,< 1e-05 s⁻¹,< 1e-05 s⁻¹,< 1e-05 s⁻¹,,< 1e-05 s⁻¹
G29U U30C,< 1e-05 s⁻¹,< 1e-05 s⁻¹,,,< 1e-05 s⁻¹
C16U C34U G38A A42U G51U U56G,< 1e-05 s⁻¹,,,,< 1e-05 s⁻¹
A15U G44A,< 1e-05 s⁻¹,< 1e-05 s⁻¹,< 1e-05 s⁻¹,2.88e-05 ± 1.1e-05 s⁻¹,
U31G A33U G38C G44A,< 1e-05 s⁻¹,,,< 1e-05 s⁻¹,
U30A G44C U56A G62U,< 1e-05 s⁻¹,,,,
A15U U31C C50G,5.26e-05 ± 2.5e-05 s⁻¹,,,,
U30G C50A,< 1e-05 s⁻¹,,,,
G29A U31C G41C A48C C68G,< 1e-05 s⁻¹,,,< 1e-05 s⁻¹,
U30C U49A G60C,< 1e-05 s⁻¹,< 1e-05 s⁻¹,,,
U31G C34U A42G,< 1e-05 s⁻¹,< 1e-05 s⁻¹,< 1e-05 s⁻¹,< 1e-05 s⁻¹,< 1e-05 s⁻¹
G32A A53U U65C,< 1e-05 s⁻¹,< 1e-05 s⁻¹,< 1e-05 s⁻¹,,
C16G A48C,< 1e-05 s⁻¹,< 1e-05 s⁻¹,< 1e-05 s⁻¹,,
U30A C58G U65C,< 1e-05 s⁻¹,,,,
U30A C58A G60C U69G,< 1e-05 s⁻¹,,,,
U31C G40A U69A,< 1e-05 s⁻¹,,,,
C16G A36C C61U,< 1e-05 s⁻¹,< 1e-05 s⁻¹,< 1e-05 s⁻¹,< 1e-05 s⁻¹,

Variant,self-cleavage kobs at 40 uM GlcN6P (glucosamine-6-phosphate [1]),self-cleavage kobs at 640 uM GlcN6P (glucosamine-6-phosphate [2]),self-cleavage kobs at 160 uM GlcN6P (glucosamine-6-phosphate [3]),self-cleavage kobs at 10000 uM GlcN6P (glucosamine-6-phosphate [4]),self-cleavage kobs at 2500 uM GlcN6P (glucosamine-6-phosphate [5])
U31G A42U,< 1e-05 s⁻¹,,,,
G29C A39G,0.000107 ± 1.2e-05 s⁻¹,0.000768 ± 0.00012 s⁻¹,0.000305 ± 6.8e-05 s⁻¹,0.00525 ± 0.00064 s⁻¹,0.00223 ± 0.00037 s⁻¹
A15C A48G G59U A64C,< 1e-05 s⁻¹,,,,
U31C G51C U55A G63U C68G C71U,< 1e-05 s⁻¹,,,,
A14C A33G G62C,< 1e-05 s⁻¹,,,< 1e-05 s⁻¹,
A14G G35A A42G C61U,< 1e-05 s⁻¹,< 1e-05 s⁻¹,< 1e-05 s⁻¹,,< 1e-05 s⁻¹
U30A C34A G35U U57A,< 1e-05 s⁻¹,,,,
C16G U49G,< 1e-05 s⁻¹,,,,
G29A A33C G43U C71U,< 1e-05 s⁻¹,,,< 1e-05 s⁻¹,
A15C G35U G63C,< 1e-05 s⁻¹,,,,
A15C A36G,< 1e-05 s⁻¹,< 1e-05 s⁻¹,< 1e-05 s⁻¹,< 1e-05 s⁻¹,< 1e-05 s⁻¹
A14U A15C,< 1e-05 s⁻¹,,,,
A14U G40A G51U,< 1e-05 s⁻¹,,,,
G32A C68A,< 1e-05 s⁻¹,,,,
A15U U65G,3.19e-05 ± 1.1e-05 s⁻¹,0.00036 ± 4.5e-05 s⁻¹,6.21e-05 ± 1e-05 s⁻¹,,
U30C U45G,< 1e-05 s⁻¹,,< 1e-05 s⁻¹,,
U31C G32A G60U,< 1e-05 s⁻¹,,,,
G32A A36G G41A,< 1e-05 s⁻¹,,,,< 1e-05 s⁻¹
A14C G41U A64U,< 1e-05 s⁻¹,< 1e-05 s⁻¹,,< 1e-05 s⁻¹,
U31A C61G A64C,< 1e-05 s⁻¹,< 1e-05 s⁻¹,,< 1e-05 s⁻¹,< 1e-05 s⁻¹
A15C G43U,< 1e-05 s⁻¹,< 1e-05 s⁻¹,< 1e-05 s⁻¹,,
A15C G59A C71A,< 1e-05 s⁻¹,,,< 1e-05 s⁻¹,
U30G G51A,< 1e-05 s⁻¹,,< 1e-05 s⁻¹,,
A14U G37C A52U,< 1e-05 s⁻¹,,,,
G29A A48G,< 1e-05 s⁻¹,< 1e-05 s⁻¹,< 1e-05 s⁻¹,,
G29C G44A,< 1e-05 s⁻¹,,,,
